Tested on: baboon placental microsomes
Experiment: Biotransformation of bupropion by baboon placental microsomes
Conditions: bupropion 250 µM, 40 min

Compound: CC(NC(C)(C)C)C(O)c1cccc(Cl)c1 (centres unmarked) [EB, erythrohydrobupropion]
- percent of the sum of the three metabolites formed by placental microsomes: 18%

Compound: C[C@H](NC(C)(C)C)[C@@H](O)c1cccc(Cl)c1 [TB, threohydrobupropion]
- percent of the sum of the three metabolites formed by placental microsomes: 82%

Reference: article PMC3124571 (Biochemical pharmacology, 2011)
